In all, about 340,000 compounds went through this assay and about 12,000 (3.5%) were called active. This list was built around the results that the source calls inconclusive (neither active nor inactive); the mix of calls is not that of the screen. Calls come from the whole dose curve; as a rule, active = well fitted inhibition curve with a large enough effect; inconclusive = small, poorly fitted or top-dose-only effect, or another doubt; inactive = no such curve, though single readings can be large or run the other way. Potencies of inconclusive entries are left out as doubtful fits.
Assay: qHTS Assay for Inhibitors of Hepatitis C Virus (HCV)
Conditions: Huh7.5.1 HCVcc-Cre (HCVcc is cell-culture hepatitis C virus) infection, luciferase reporter, 44 h; series mostly up to 41.8 µM
How it was run: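 Luciferase read-out (15 sec integration) after a 15 min room-temperature substrate step quantifies HCVcc-Cre infection. Cells, 1,000 per well, had compound added 4 h post-plating, then virus at ~0.5 moi, and were cultured 44 h.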
Potency is the fitted concentration of half-maximal effect; tags give direction and shape of the fitted curve.

| Structure (SMILES) | Potency |
| --- | --- |
| O=C(Nc1nnc(C2CC2)s1)C1Cc2ccccc2CN1C(=O)c1ccco1 (configuration not stated) | inactive |
| CC(C)C(=O)Nc1ccc(-c2nc3cccnc3o2)cc1 | inconclusive [inhibitor, single point] |
| COc1cc(NC(=O)COC(=O)c2ccc([N+](=O)[O-])s2)cc(OC)c1OC | inconclusive [inhibitor, partial curve, poor fit] |
| O=C(Nc1cc(C(F)(F)F)ccc1N1CCOCC1)c1cccs1 | inconclusive [inhibitor, single point] |
| O=S(=O)(c1ccc(N2CCCC2)cc1)C(F)(F)F | inconclusive [inhibitor, single point] |
| CC(C)(C)N(Cc1ccccc1)C(=O)CSc1nnc(CNc2ccc(F)cc2)o1 | inconclusive [inhibitor, single point] |
| CCn1c(CCl)nc2cc(S(=O)(=O)N3CCOCC3)ccc21 | inconclusive [inhibitor, single point] |
| O=C(OC(C(=O)NCc1ccccc1)c1ccccc1F)c1ccco1 (configuration not stated) | inactive |
| O=C(/C=C/c1ccco1)NC(=S)Nc1cccc(-c2nc3ccccc3s2)c1 | active: 10 µM |
| NC1=NS(=O)(=O)NC1c1cccc(F)c1 (configuration not stated) | inactive |
| O=C(Nc1ccccc1)c1ccc[nH]1 | inactive |
| CC(=O)Nc1ccc(NC(=O)C2CCCN(C(=O)c3ccc(Cl)cc3)C2)cc1 (configuration not stated) | inactive |
| COc1cc(Cl)cc2c1Sc1ccccc1/C2=C/CCN(C)C | active: 4.47 µM |
| COc1ccc(C(=O)N/N=C/c2ccc(OC)c(CSc3ccccn3)c2)cc1 | inconclusive [inhibitor, single point] |
| Cc1[nH]n2c(=O)cc(C(C)(C)C)nc2c1-c1ccccc1 | active: 10 µM |
| CCc1nn2c(=O)cc(COC(=O)c3cc(Cl)c(OC)c(OC)c3)nc2s1 | inconclusive [inhibitor, full curve, poor fit] |
| Cc1cc(=O)oc2cc(OCC(=O)c3ccccc3)ccc12 | inactive |
| COc1ccc(CCN2C(=O)C3C4C=CC(C3C2=O)C2C(=O)N(CCc3ccc(OC)c(OC)c3)C(=O)C42)cc1OC (configuration not stated) | active: 4.47 µM |
| Cc1sc(NC(=O)Cc2ccc3c(c2)OCO3)nc1-c1ccc2c(c1)CCN2C(=O)c1ccc(F)cc1 | active: 1.26 µM |
| O=C(c1ccc(Cl)c([N+](=O)[O-])c1)N1CCCc2ccccc21 | inactive |
| FC(F)(F)c1ccc(N2CCN(c3ncnc4c3nnn4Cc3ccccc3)CC2)nc1 | inactive |
| COc1ccc(S(=O)(=O)Nc2cc3c4c(c2)CCN4C(=O)CC3)cc1C | inactive |
| COc1ccc(OC)c(C(=O)NC(CC(N)=O)c2ccc(N3CCC(N4CCCC4)CC3)c([N+](=O)[O-])c2)c1 (configuration not stated) | inconclusive [inhibitor, single point] |
| S=C(NCc1ccco1)Nc1ccc(Br)cn1 | inconclusive [inhibitor, partial curve] |

| Structure (SMILES) | Potency |
| --- | --- |
| O=[N+]([O-])c1ccc(O)c(/C=N/Nc2nc3ccccc3[nH]2)c1 | active: 11.2 µM |
| COc1cccc(S(=O)(=O)NCc2ccc(C(=O)Nc3ccc(C)cc3)cc2)c1 | inconclusive [inhibitor, partial curve] |
| COCN(C#N)c1nc(N(C)C)nc(N(C)C)n1 | inconclusive [inhibitor, full curve, poor fit] |
| Cc1cc(C)c(S(=O)(=O)c2c(C)cccc2C)c(Cl)n1 | inconclusive [inhibitor, single point] |
| COc1ccc(NC(=O)COc2ccc3c(c2)CCC3)cc1S(N)(=O)=O | inconclusive [inhibitor, single point] |
| COc1ccc(C(=O)C(C)[n+]2ccc(C)c3ccccc32)cc1[N+](=O)[O-] (configuration not stated) | inactive |
| O=C(NCc1cccnc1)c1ccc2c(c1)C(=O)N(Cc1ccccc1)C2=O | inactive |
| CCCc1cc(C(=O)Nc2cccc(Cl)c2C)no1 | inactive |
| CC(C)(C)NC(=O)CCn1nc(-c2ccc(Cl)cc2)c2ccccc2c1=O | inconclusive [inhibitor, single point] |
| CCC(CC)C(=O)Nc1nnc(-c2cccs2)s1 | inactive |
| O=C(O)CCC(=O)N1N=C(c2c(-c3ccccc3)c3cc(Cl)ccc3[nH]c2=O)CC1c1ccco1 (configuration not stated) | inactive |
| CCOc1ccccc1NC(=O)/C=C/c1ccc(S(=O)(=O)N2CCOCC2)cc1 | active: 10 µM |
| O=c1[nH]cc(NCCNc2ncc(C(F)(F)F)cc2Cl)c(=O)[nH]1 | inactive |
| CCC(=O)Nc1ccc(Nc2ccccc2)cc1 | inconclusive [inhibitor, partial curve] |
| CCc1cccc(CC)c1NC(=O)c1cccc(NC(=O)c2ccccc2)c1 | inconclusive [inhibitor, single point] |
| CCOC(=O)CCc1ccc(NC(=O)/C=C/c2ccc([N+](=O)[O-])o2)cc1 | inconclusive [inhibitor, single point] |
| C/C(=N\Nc1cccc(Cl)c1)c1ccncc1 | inconclusive [inhibitor, partial curve] |
| Cc1nc2cc(-c3ccccc3)nn2c(C)c1CCC(=O)NC(C)c1ccc2c(c1)OCCO2 (configuration not stated) | inconclusive [inhibitor, partial curve] |
| CSc1nc(Oc2ccc3ccccc3c2)c2sccc2n1 | inconclusive [inhibitor, full curve] |
| Cc1ccc(-c2nc(CS(=O)(=O)CC(=O)NCCCN3CCN(C)CC3)c(C)o2)cc1 | inconclusive [inhibitor, single point] |
| COc1ccc(Br)cc1C(=O)NC(=S)Nc1ccc(CN2CCOCC2)cc1 | inconclusive [inhibitor, partial curve] |
| Cc1ccccc1NC(=O)COc1coc(CN2CCN(Cc3ccccc3)CC2)cc1=O | inconclusive [inhibitor, partial curve] |
| CC(C)(C)C1CCC(C(=O)NNC(=O)c2ccncc2)CC1 (configuration not stated) | inconclusive [inhibitor, single point] |

From PubChem BioAssay AID651820 (National Center for Advancing Translational Sciences (NCATS), 2012)
